The list shows a part of the results.
Key:
Assay in all cases: glycan array binding signal (z-score within array); higher = stronger binding
Details in all cases: glycan notation: IUPAC condensed, linker removed; mutation: H59Q
[1] = biological target: Man(a1-2)Man(a1-3)[Man(a1-2)Man(a1-6)]Man
How it was run: (§1)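 Glycan array data were curated from 3228 arrays in the Consortium for Functional Glycomics database and kept only where the protein sequence was available. Glycan names were converted to IUPAC-condensed notation, and columns mapping to the same glycan were averaged. The binding signal is a within-array Z-score, averaged across arrays of the same protein sequence at different concentrations or buffers and across linkers. Negative Z-scores can be read as non-binding.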

[2] = biological target: Man(a1-2)Man(a1-3)[Man(a1-2)Man(a1-6)]Man(a1-6)[Man(a1-2)Man(a1-2)Man(a1-3)]Man
How it was run: as §1

[3] = biological target: Man(a1-2)Man(a1-3)[Man(a1-2)Man(a1-6)]Man(a1-6)[Man(a1-2)Man(a1-2)Man(a1-3)]Man(b1-4)GlcNAc(b1-4)GlcNAc
How it was run: as §1

[4] = biological target: Man(a1-2)Man(a1-3)[Man(a1-6)]Man(a1-6)[Man(a1-2)Man(a1-3)]Man(b1-4)GlcNAc(b1-4)GlcNAc
How it was run: as §1

[5] = biological target: Man(a1-2)Man(a1-6)[Man(a1-3)]Man(a1-6)[Man(a1-2)Man(a1-2)Man(a1-3)]Man
How it was run: as §1

[6] = biological target: Man(a1-2)Man(a1-6)[Man(a1-3)]Man(a1-6)[Man(a1-2)Man(a1-2)Man(a1-3)]Man(b1-4)GlcNAc(b1-4)GlcNAc
How it was run: as §1

Man(a1-3)[Man(a1-6)]Man = biological target: Man(a1-3)[Man(a1-6)]Man
How it was run: as §1

[7] = biological target: Man(a1-3)[Man(a1-6)]Man(a1-6)[Man(a1-2)Man(a1-3)]Man(b1-4)GlcNAc(b1-4)GlcNAc
How it was run: as §1

[8] = biological target: Man(a1-3)[Man(a1-6)]Man(a1-6)[Man(a1-3)]Man
How it was run: as §1

[9] = biological target: Man(a1-3)[Man(a1-6)]Man(a1-6)[Man(a1-3)]Man(b1-4)GlcNAc(b1-4)GlcNAc
How it was run: as §1

[10] = biological target: Man(a1-3)[Man(a1-6)]Man(b1-4)GlcNAc(b1-4)GlcNAc
How it was run: as §1

[11] = biological target: Man(a1-3)[Man(a1-6)]Man(b1-4)GlcNAc(b1-4)[Fuc(a1-6)]GlcNAc
How it was run: as §1

Man(a1-6)Man = biological target: Man(a1-6)Man
How it was run: as §1

Man(b1-4)GlcNAc = biological target: Man(b1-4)GlcNAc
How it was run: as §1

MurNAc(b1-4)GlcNAc = biological target: MurNAc(b1-4)GlcNAc
How it was run: as §1

Neu5Ac(a2-3)Gal = biological target: Neu5Ac(a2-3)Gal
How it was run: as §1

[12] = biological target: Neu5Ac(a2-3)Gal(b1-3)GalNAc
How it was run: as §1

[13] = biological target: Neu5Ac(a2-3)Gal(b1-3)GalNAc(b1-3)Gal(a1-4)Gal(b1-4)Glc
How it was run: as §1

[14] = biological target: Neu5Ac(a2-3)Gal(b1-3)GalNAc(b1-4)Gal(b1-4)Glc
How it was run: as §1

[15] = biological target: Neu5Ac(a2-3)Gal(b1-3)GalNAc(b1-4)[Neu5Ac(a2-3)]Gal(b1-4)Glc
How it was run: as §1

[16] = biological target: Neu5Ac(a2-3)Gal(b1-3)GalNAc(b1-4)[Neu5Ac(a2-8)Neu5Ac(a2-3)]Gal(b1-4)Glc
How it was run: as §1

[17] = biological target: Neu5Ac(a2-3)Gal(b1-3)GalNAc6S
How it was run: as §1

[18] = biological target: Neu5Ac(a2-3)Gal(b1-3)GlcNAc
How it was run: as §1

[19] = biological target: Neu5Ac(a2-3)Gal(b1-3)GlcNAc(b1-2)Man
How it was run: as §1

[20] = biological target: Neu5Ac(a2-3)Gal(b1-3)GlcNAc(b1-2)Man(a1-3)[GlcNAc(b1-4)][Neu5Ac(a2-3)Gal(b1-3)GlcNAc(b1-2)Man(a1-6)]Man(b1-4)GlcNAc(b1-4)GlcNAc
How it was run: as §1

[21] = biological target: Neu5Ac(a2-3)Gal(b1-3)GlcNAc(b1-2)Man(a1-3)[Neu5Ac(a2-3)Gal(b1-3)GlcNAc(b1-2)Man(a1-6)]Man(b1-4)GlcNAc(b1-4)GlcNAc
How it was run: as §1

[22] = biological target: Neu5Ac(a2-3)Gal(b1-3)GlcNAc(b1-2)[Neu5Ac(a2-3)Gal(b1-3)GlcNAc(b1-4)]Man(a1-6)[Neu5Ac(a2-3)Gal(b1-3)GlcNAc(b1-2)Man(a1-3)]Man(b1-4)GlcNAc(b1-4)GlcNAc
How it was run: as §1

[23] = biological target: Neu5Ac(a2-3)Gal(b1-3)GlcNAc(b1-3)Gal(b1-3)GlcNAc
How it was run: as §1

[24] = biological target: Neu5Ac(a2-3)Gal(b1-3)GlcNAc(b1-3)Gal(b1-4)GlcNAc
How it was run: as §1

[25] = biological target: Neu5Ac(a2-3)Gal(b1-3)GlcNAc(b1-3)GalNAc
How it was run: as §1

[26] = biological target: Neu5Ac(a2-3)Gal(b1-3)GlcNAc(b1-6)GalNAc
How it was run: as §1

[27] = biological target: Neu5Ac(a2-3)Gal(b1-3)GlcNAc6S
How it was run: as §1

[28] = biological target: Neu5Ac(a2-3)Gal(b1-3)[Fuc(a1-4)]GlcNAc
How it was run: as §1

[29] = biological target: Neu5Ac(a2-3)Gal(b1-3)[Fuc(a1-4)]GlcNAc(b1-3)Gal(b1-3)[Fuc(a1-4)]GlcNAc
How it was run: as §1

[30] = biological target: Neu5Ac(a2-3)Gal(b1-3)[Fuc(a1-4)]GlcNAc(b1-3)Gal(b1-4)[Fuc(a1-3)]GlcNAc
How it was run: as §1

[31] = biological target: Neu5Ac(a2-3)Gal(b1-3)[GlcNAc(b1-6)]GalNAc
How it was run: as §1

[32] = biological target: Neu5Ac(a2-3)Gal(b1-3)[Neu5Ac(a2-6)]GalNAc
How it was run: as §1

[33] = biological target: Neu5Ac(a2-3)Gal(b1-3)[Neu5Ac(a2-6)]GlcNAc(b1-3)[Fuc(a1-3)[Gal(b1-4)]GlcNAc(b1-6)]Gal(b1-4)Glc
How it was run: as §1

[34] = biological target: Neu5Ac(a2-3)Gal(b1-3)]Neu5Ac(a2-3)Gal(b1-4)]GlcNAc
How it was run: as §1

Neu5Ac(a2-3)Gal(b1-4)Glc = biological target: Neu5Ac(a2-3)Gal(b1-4)Glc
How it was run: as §1

[35] = biological target: Neu5Ac(a2-3)Gal(b1-4)GlcNAc
How it was run: as §1

[36] = biological target: Neu5Ac(a2-3)Gal(b1-4)GlcNAc(b1-2)Man
How it was run: as §1

[37] = biological target: Neu5Ac(a2-3)Gal(b1-4)GlcNAc(b1-2)Man(a1-3)[GlcNAc(b1-4)][Neu5Ac(a2-3)Gal(b1-4)GlcNAc(b1-2)Man(a1-6)]Man(b1-4)GlcNAc(b1-4)GlcNAc
How it was run: as §1

[38] = biological target: Neu5Ac(a2-3)Gal(b1-4)GlcNAc(b1-2)Man(a1-3)[Neu5Ac(a2-3)Gal(b1-4)GlcNAc(b1-2)Man(a1-6)]Man(b1-4)GlcNAc(b1-4)GlcNAc
How it was run: as §1

[39] = biological target: Neu5Ac(a2-3)Gal(b1-4)GlcNAc(b1-2)Man(a1-3)[Neu5Ac(a2-3)Gal(b1-4)GlcNAc(b1-2)Man(a1-6)]Man(b1-4)GlcNAc(b1-4)[Fuc(a1-6)]GlcNAc
How it was run: as §1

B1: rAAL-H59Q (Agrocybe aegerita), Q6WY08 (protein)
chain: MQGVNIYNISAGTSVDLAAPVTTGDIVTFFSSALNLNAGAGNPNNTTLNLFAENGAYLLQIAFRLQENVIIFNSRQPDGPWLVEQRVSDVANQFAGIDGKAMVTVFDHGDKYQVVINEKTVIQYTKQISGLTLSLSYNATEETSIFSTVVEAVTYTGLALEHHHHHH
For B1, the “glycan array binding signal (z-score)” value [1] was -0.008, the “glycan array binding signal (z-score)” value [2] was -0.147 and the “glycan array binding signal (z-score)” value [3] was -0.132. The “glycan array binding signal (z-score)” value [4] was -0.093, the “glycan array binding signal (z-score)” value [5] was -0.026 and the “glycan array binding signal (z-score)” value [6] was -0.059. For the same binder, the “glycan array binding signal (z-score)” value (Man(a1-3)[Man(a1-6)]Man) was -0.103, the “glycan array binding signal (z-score)” value [7] was -0.055 and the “glycan array binding signal (z-score)” value [8] was -0.121. For the same binder, the “glycan array binding signal (z-score)” value [9] was -0.028, the “glycan array binding signal (z-score)” value [10] was -0.085 and the “glycan array binding signal (z-score)” value [11] was -0.004. The “glycan array binding signal (z-score)” value (Man(a1-6)Man) was -0.107, the “glycan array binding signal (z-score)” value (Man(b1-4)GlcNAc) was -0.083 and the “glycan array binding signal (z-score)” value (MurNAc(b1-4)GlcNAc) was -0.127. The “glycan array binding signal (z-score)” value (Neu5Ac(a2-3)Gal) was -0.095, the “glycan array binding signal (z-score)” value [12] was -0.066 and the “glycan array binding signal (z-score)” value [13] was -0.076. The “glycan array binding signal (z-score)” value [14] was -0.108, the “glycan array binding signal (z-score)” value [15] was -0.101 and the “glycan array binding signal (z-score)” value [16] was -0.144. The “glycan array binding signal (z-score)” value [17] was -0.117, the “glycan array binding signal (z-score)” value [18] was -0.11 and the “glycan array binding signal (z-score)” value [19] was -0.142. The “glycan array binding signal (z-score)” value [20] was -0.066, the “glycan array binding signal (z-score)” value [21] was -0.05 and the “glycan array binding signal (z-score)” value [22] was -0.061. The “glycan array binding signal (z-score)” value [23] was -0.12, the “glycan array binding signal (z-score)” value [24] was -0.112 and the “glycan array binding signal (z-score)” value [25] was -0.021. The “glycan array binding signal (z-score)” value [26] was -0.045, the “glycan array binding signal (z-score)” value [27] was -0.064 and the “glycan array binding signal (z-score)” value [28] was -0.062. The “glycan array binding signal (z-score)” value [29] was -0.069, the “glycan array binding signal (z-score)” value [30] was -0.068 and the “glycan array binding signal (z-score)” value [31] was -0.139. For the same binder, the “glycan array binding signal (z-score)” value [32] was -0.121, the “glycan array binding signal (z-score)” value [33] was -0.095 and the “glycan array binding signal (z-score)” value [34] was -0.15. The “glycan array binding signal (z-score)” value (Neu5Ac(a2-3)Gal(b1-4)Glc) was -0.086, the “glycan array binding signal (z-score)” value [35] was -0.078 and the “glycan array binding signal (z-score)” value [36] was -0.03. For the same binder, the “glycan array binding signal (z-score)” value [37] was -0.07, the “glycan array binding signal (z-score)” value [38] was 0.113 and the “glycan array binding signal (z-score)” value [39] was -0.072.
